In the RNAGym collection of RNA variant scans (doi:10.7554/elife.90254):
The source gives no read counts; variants with many changes may rest on few reads.

B1: LINE1-mini (parent)
chain: GGCAGAGCUCAACACAGCGUGGCAAAGUGGCUGUGGCUAGACUGCC

Variants of: B1
Experiment: self-cleavage, relative activity (ratio to wild type); higher = more cleavage; in vitro, sequencing; the parent is a self-cleaving ribozyme

Row | Variant | self-cleavage
1 | GGCAUAACUUAACACAGCGUGUCAAAGUGGCUGUGGCUAGACUGCC [G5U G7A C10U G22U] | 0.55
2 | GGCAUAGCUCAACACAGCGUGGCAAAGUGGCUCUGGAUAGACUGAC [G5U G33C C37A C45A] | 0.02
3 | GGCAUAGCUCAACACAGCGUGGUAAAGUGGCUGUGGCUAGACUGUC [G5U C23U C45U] | 0.09
4 | GGCAUAGCUCAACACAGCCUUGCAAAGUGGCUGUGGCUAGACUGCC [G5U G19C G21U] | 0.02
5 | GGCAUAGCUCAACACAGCGUAGCAAAGUGUCUGUGGAUAGAGUGCC [G5U G21A G30U C37A C42G] | 0.05
6 | GGCAUAGCUCAACACAGCGUUGCACCGUGGCUGUGGCUAGACUGCC [G5U G21U A25C A26C] | 0.07
7 | GGCAUAGCUCAACACAGCGUGGCAAAGUUGCUGUGGGUAGAGUUCC [G5U G29U C37G C42G G44U] | 0.02
8 | GGCAUAGCUCAACACAGCGUGGCAAAGUAGCUGUGGCUAGCCUGCC [G5U G29A A41C] | 0.13
9 | GGCAUAGCUCAACACAGCGUGGCAAAGUGGAGGUGGCUAGACUGCC [G5U C31A U32G] | 0.05
10 | GGCAUAGCUCAACACACCGUGGCAAAGUGGAUGUGGCUAGACUGCC [G5U G17C C31A] | 0.03
11 | GGCAUAGCUCAACACACCGUGGCAAAGUGGGUGUGGCUAGACUGCC [G5U G17C C31G] | 0.04
12 | GGCAUAUCUCGACACAGCGUGUCAAAGUGGCUGUGGCUAGACUGAC [G5U G7U A11G G22U C45A] | 0.01
13 | GGCAUAGCUCAACACAGCGUGGCAAAGUGGCUAUGGCUAGACUGAC [G5U G33A C45A] | 0.04
14 | GGCAUACCUCAACACAGAGUGGGAAAGAGGCUGAGGCUAGAAUGGC [G5U G7C C18A C23G U28A U34A C42A C45G] | 0.01
15 | GGCAUAUCUCAACACAGCGUGACAAAGUGGCUGUGGCUAGAAUGCC [G5U G7U G22A C42A] | 0.04
16 | GGCAUAGCUCAACACAGCAUGGCAAACUGGCUGUGGCUAGACUGAC [G5U G19A G27C C45A] | 0.03
17 | GGCAUAGCUCAACACAGCGUGGCAAAGUUGCUCUGGCUAGACUGCC [G5U G29U G33C] | 0.02
18 | GGCAUAGCUCAACACAGCGUGGCAAAGUGUCUUUGGCUAGACUGCA [G5U G30U G33U C46A] | 0.08
19 | GGCAUAGCUCAACACAGCGUGGCAAAGUGGCUGUGGUUAGAAUGCC [G5U C37U C42A] | 0.03

Row | Variant | self-cleavage
20 | GGCAUAGCUCAACACAGCGUGCCAAAGUGGCUGUGGAUAGCCUGCC [G5U G22C C37A A41C] | 0.02
21 | GGCAUAGCUCAACACAGCGUAGCAAAGUGGAUGUGGCUAGAUUGCC [G5U G21A C31A C42U] | 0.02
22 | GGCAUAGCUCAACACAGCGUGGCAAAAUGUCAGUGGCUAGACUCCC [G5U G27A G30U U32A G44C] | 0.03
23 | GGCAUAGCUCAACACAGCGUGGCAAAGUGUAUGUGGGUAGACUGCC [G5U G30U C31A C37G] | 0.01
24 | GGCAUAGCUCAACACAGCAUGGCAAAGUGGCUGUGGCUAGCCUGCC [G5U G19A A41C] | 0.01
25 | GGCAUAGCUCAACACAGCGUGGCAAAGUGGGUGUUGCGACACUUCC [G5U C31G G35U U38G G40C G44U] | 0.02
26 | GGCAUAUGUCAACACAGCGUGGCAAAGUGGCUGUGGCUAGACUGCC [G5U G7U C8G] | 0.36
27 | GGCAUAGCUCAACACAGCGUGGUAAAGUGGCUGUGGCUAGCCUUCA [G5U C23U A41C G44U C46A] | 0.05
28 | GGCAUAGCUCAACACAGCCUGGCAAAGUGGCUGUGGCUUGACUGCC [G5U G19C A39U] | 0.03
29 | GGCAUAUCUCAACACAGCGUUGCAAAGUGGCUGUGGCUAGACUGCC [G5U G7U G21U] | 0.06
30 | GGCAUAACUCAACAUAGCGUGGCAAAGUGGCUGUGGCUAGACUGCC [G5U G7A C15U] | 0.11
31 | GGCAUAGCUCAACACAGCGUGGCAAAGUUCCUGUGGCUAGACUGCC [G5U G29U G30C] | 0.15
32 | GGCAUAGCUCAACACAGCGUGGUAAAGUUGCUGUGGGUAGCCUGCC [G5U C23U G29U C37G A41C] | 0.01
33 | GGCAUAGCUCAACACAGCGUGUCAAAGUGGGUGUGGCUAGACUGCC [G5U G22U C31G] | 0.01
34 | GGCAUAGCUCAACACAGCGUGUCAUAGUGGCUGUAGCUAGACUGUC [G5U G22U A25U G35A C45U] | 0.04
35 | GGCAUAGCUCAACACAGCGUCGCAAAGUGGCUGUGGUUAGACUGCC [G5U G21C C37U] | 0.02
36 | GGCAUAGCUCAACACAGCAUGGCAAAGUGGCUGUGGCUGAACUGCC [G5U G19A A39G G40A] | 0.01
37 | GGCAUAGCUCAACACAGCGUGGCAAAGUCGCUGUGGCCAGACUGCC [G5U G29C U38C] | 0.02
38 | GGCAUACCUCAACACAGCGUGGCAAAGUGGCUGUUGACGGACUGCC [G5U G7C G35U C37A U38C A39G] | 0.01

Row | Variant | self-cleavage
39 | GGCAUAGCUCAACACAGCGUGCCAAUGUGGCUGUGGCUAGACUCCC [G5U G22C A26U G44C] | 0.01
40 | GGCAUAGCUCAACACAGCGUGGCAAAGUGGUUGUGGCUAUACUGCC [G5U C31U G40U] | 0.02
41 | GGCAUAUCUCAACACAGGGUGGCAAAGUGGCUGUGGCUAGACUGCC [G5U G7U C18G] | 0.03
42 | GGCAUAGCUCAACACAGCCUGGCGAAGUGGCUGUGGCUAGACUUCC [G5U G19C A24G G44U] | 0.09
43 | GGCAUAGCUCAACACAUCGUGGCAAAGUGGCAGUGGCUAGACUGCC [G5U G17U U32A] | 0.05
44 | GGCAUAGCUCAACACAGCGUGGCAAAGUGGCUCUGGCUAGAAUGCC [G5U G33C C42A] | 0.07
45 | GGCAUAGCUCAACACAGCGUGGCAAAGUGACUGUGGUUAGACUGCC [G5U G30A C37U] | 0.04
46 | GGCAUAGCUCAACACAGCGUGACAAUGUGGCUGUGGCUAGACUACC [G5U G22A A26U G44A] | 0.01
47 | GGCAUAGCUCAACACAGCUUGGCAAAGGGGCUGUGGCUAGACUGCC [G5U G19U U28G] | 0.03
48 | GGCAUAGCUCAACACAGCGUGGCAAAAUGGCUGUGGCGAGACUGCC [G5U G27A U38G] | 0.01
49 | GGCAUAGCUCAACACAGCGUAGCAACGUGGCUGUGGCUAGACUGCC [G5U G21A A26C] | 0.07
50 | GGCAUAGCUCAACACAGCGUGCCAAAGCGGCUGUGGCUAGAUUGCG [G5U G22C U28C C42U C46G] | 0.01
51 | GGCAUAACUCAAAACAGCGUAGCAAACUGGCUGUGGCUAGACUGCC [G5U G7A C13A G21A G27C] | 0.9
52 | GGCAUAGCUCAACACAGCGUAGCAAAGUAGCUGUGGCUAGACUGCC [G5U G21A G29A] | 0.47
53 | GGCAUAGCUCAACACAGCGUGGCAAAGUCGCAGUCGCUAGACUGCC [G5U G29C U32A G35C] | 0.02
54 | GGCAUAGCUCAACACAACGUGGCAAAAUGGCUGUGGCUAGACUGCC [G5U G17A G27A] | 0.05
55 | GGCAUAGCUCAACACAGCGUAGAAAAGUGGCUGUGGCUAGACUGCA [G5U G21A C23A C46A] | 0.19
56 | GGCAUAGCUCAACACAGCGUGGCAAAGUGCCUGUGGCUAGACUUCC [G5U G30C G44U] | 0.01
